The data scatter; read single values as rough.
Assay: amyloid nucleation score relative to library mode (yeast Sup35 reporter selection) (log enrichment difference); higher = more amyloid nucleation; sequences are the first 22 residues of the Bri2 peptide extended by up to 12 random residues
Conditions: random library (experiment): 1;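 active = nucleation score significantly above 0 at FDR 0.05; inactive = not significantly above 0 or absent from output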
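Note: [psi-pin-] Saccharomyces cerevisiae expressing SupN fusions, induced by 100 µM Cu2SO4, selected 7 d at 30 °C without adenine and uracil, scored by deep sequencing of output versus input.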

| Sequence | amyloid nucleation score |
| --- | --- |
| EASNCFAIRHFENKFAVETLICGKALLFDQDGLS | inactive |
| EASNCFAIRHFENKFAVETLICGKECWWTWCEGR | inactive |
| EASNCFAIRHFENKFAVETLICGKEVDKVWVRRV | inactive |
| EASNCFAIRHFENKFAVETLICGKFEMMVKNVTE | -0.708 |
| EASNCFAIRHFENKFAVETLICGKFVCGSGGPGR | 8.4 |
| EASNCFAIRHFENKFAVETLICGKGARGRPSWRG | inactive |
| EASNCFAIRHFENKFAVETLICGKGPTRKTCTVH | inactive |
| EASNCFAIRHFENKFAVETLICGKLPLLYSGREG | inactive |
| EASNCFAIRHFENKFAVETLICGKLVFVCRWMS | inactive |
| EASNCFAIRHFENKFAVETLICGKMKPLTLARVV | inactive |
| EASNCFAIRHFENKFAVETLICGKQDLYAKPVRS | inactive |
| EASNCFAIRHFENKFAVETLICGKRQIGMFGL | inactive |
| EASNCFAIRHFENKFAVETLICGKRVRKAAVGGA | inactive |
| EASNCFAIRHFENKFAVETLICGKSS | inactive |
| EASNCFAIRHFENKFAVETLICGKTLQGMGYWAR | 4.35 |
| EASNCFAIRHFENKFAVETLICGKVGWTVEYLRF | inactive |
| EASNCFAIRHFENKFAVETLICGKYG | inactive |
| EASNCFAIRHFENKFAVETLICGKYSRSFWSQVT | inactive |
| EASNCFAIRHFENKFAVETLICGKYTQMHQRLQM | 0.224 |
| EASNCFAIRHFENKFAVETLICGLACEAYKGACG | inactive |
| EASNCFAIRHFENKFAVETLICGLAPAWAYSFVP | 1.69 |
| EASNCFAIRHFENKFAVETLICGLARLTLYWTPC | inactive |
| EASNCFAIRHFENKFAVETLICGLATSGIRSAAW | inactive |
| EASNCFAIRHFENKFAVETLICGLCFFYWIQVYP | inactive |
| EASNCFAIRHFENKFAVETLICGLCTSKVLIGGW | 4.48 |
| EASNCFAIRHFENKFAVETLICGLCTSLTAYVYK | 6.48 |
| EASNCFAIRHFENKFAVETLICGLD | inactive |

| Sequence | amyloid nucleation score |
| --- | --- |
| EASNCFAIRHFENKFAVETLICGLDQSGKVIAQS | inactive |
| EASNCFAIRHFENKFAVETLICGLFRLTYDGCVR | inactive |
| EASNCFAIRHFENKFAVETLICGLGCLWPWWCCV | 4.49 |
| EASNCFAIRHFENKFAVETLICGLGLGAAAEASV | 3.53 |
| EASNCFAIRHFENKFAVETLICGLGSREALAMDG | inactive |
| EASNCFAIRHFENKFAVETLICGLHQVSSRVDWR | 0.369 |
| EASNCFAIRHFENKFAVETLICGLIYDWDGSPRL | inactive |
| EASNCFAIRHFENKFAVETLICGLKCMYLADM | -0.45 |
| EASNCFAIRHFENKFAVETLICGLKKQCRPGCLT | inactive |
| EASNCFAIRHFENKFAVETLICGLKLVVDRNRCL | 5.62 |
| EASNCFAIRHFENKFAVETLICGLKS | inactive |
| EASNCFAIRHFENKFAVETLICGLKWRYCVCCNF | inactive |
| EASNCFAIRHFENKFAVETLICGLLIFWNCNMVS | inactive |
| EASNCFAIRHFENKFAVETLICGLLMSGCSYVVR | inactive |
| EASNCFAIRHFENKFAVETLICGLLMSLSFFA | 2.51 |
| EASNCFAIRHFENKFAVETLICGLLSGSG | inactive |
| EASNCFAIRHFENKFAVETLICGLLTETGMSK | inactive |
| EASNCFAIRHFENKFAVETLICGLMMILTRTQVG | inactive |
| EASNCFAIRHFENKFAVETLICGLNIKRQSVKWE | inactive |
| EASNCFAIRHFENKFAVETLICGLNMM | 5.69 |
| EASNCFAIRHFENKFAVETLICGLNMVSMFEFFR | inactive |
| EASNCFAIRHFENKFAVETLICGLPGMLCGSLRT | 6.44 |
| EASNCFAIRHFENKFAVETLICGLQLSATDTKNG | inactive |
| EASNCFAIRHFENKFAVETLICGLQSFVCNRRAG | 7.9 |
| EASNCFAIRHFENKFAVETLICGLRDRTSPLQYV | inactive |
| EASNCFAIRHFENKFAVETLICGLRKRTKEEEWY | 1.17 |
| EASNCFAIRHFENKFAVETLICGLRKVRMMSVPV | inactive |

Same assay, conditions: random library (experiment): 2

| Sequence | amyloid nucleation score |
| --- | --- |
| EASNCFAIRHFENKFAVETLICGKAYVHGYMKKR | inactive |
| EASNCFAIRHFENKFAVETLICGKESNNTFEVRW | inactive |
| EASNCFAIRHFENKFAVETLICGKKLCQDRSIGL | inactive |
| EASNCFAIRHFENKFAVETLICGKMGMSRVVRDF | 1.71 |
| EASNCFAIRHFENKFAVETLICGKRT | inactive |
| EASNCFAIRHFENKFAVETLICGKSMYCGCNVWF | 0.673 |
| EASNCFAIRHFENKFAVETLICGKSNVRTVCGCM | 3.8 |
| EASNCFAIRHFENKFAVETLICGLAESGGRARFW | inactive |
| EASNCFAIRHFENKFAVETLICGLANIIWCGVRF | inactive |
| EASNCFAIRHFENKFAVETLICGLDCLSCVTFVR | 5.92 |
| EASNCFAIRHFENKFAVETLICGLEYVKRIVLAR | inactive |
| EASNCFAIRHFENKFAVETLICGLEYYLNPYMKM | inactive |
| EASNCFAIRHFENKFAVETLICGLFIGSVILGSG | 7.56 |
| EASNCFAIRHFENKFAVETLICGLHWTLLDVWLR | inactive |
| EASNCFAIRHFENKFAVETLICGLIGSHFIRSFC | inactive |
| EASNCFAIRHFENKFAVETLICGLIL | 7.15 |
| EASNCFAIRHFENKFAVETLICGLIMRGGKDRRW | inactive |
| EASNCFAIRHFENKFAVETLICGLLFSNCGDMLV | 3.26 |
| EASNCFAIRHFENKFAVETLICGLLLLCRKVSCK | 0.616 |
| EASNCFAIRHFENKFAVETLICGLLNLSTSIIAV | 2.09 |
| EASNCFAIRHFENKFAVETLICGLLSII | 5.2 |
| EASNCFAIRHFENKFAVETLICGLLSWRVIIGVW | inactive |
| EASNCFAIRHFENKFAVETLICGLLYSSLSVIAF | inactive |
| EASNCFAIRHFENKFAVETLICGLNLFPFNLSSQ | 8.98 |
| EASNCFAIRHFENKFAVETLICGLRFYGHNRGC | 5.37 |
| EASNCFAIRHFENKFAVETLICGLRKFFDCEFGE | 3.01 |

Same assay, conditions: random library (experiment): 3

| Sequence | amyloid nucleation score |
| --- | --- |
| EASNCFAIRHFENKFAVETLICGKAPRDMWTFLG | 0.0556 |
| EASNCFAIRHFENKFAVETLICGKGLPCPRLDGD | inactive |
| EASNCFAIRHFENKFAVETLICGKGRARSVVMRR | inactive |
| EASNCFAIRHFENKFAVETLICGKGTTLHVRNLK | -0.402 |
| EASNCFAIRHFENKFAVETLICGKHR | inactive |
| EASNCFAIRHFENKFAVETLICGKLGIRCKQHVR | inactive |
| EASNCFAIRHFENKFAVETLICGKQHRQLMRVLV | inactive |
| EASNCFAIRHFENKFAVETLICGKSHESGMLNGW | inactive |
| EASNCFAIRHFENKFAVETLICGKSLRCRKWLMN | inactive |
| EASNCFAIRHFENKFAVETLICGKVDGRSKAASG | inactive |
| EASNCFAIRHFENKFAVETLICGKVLVSHGARGE | 2.73 |
| EASNCFAIRHFENKFAVETLICGKWLVGIICLRR | inactive |
| EASNCFAIRHFENKFAVETLICGKWRLWVKVFGD | 0.527 |
| EASNCFAIRHFENKFAVETLICGL | inactive |
| EASNCFAIRHFENKFAVETLICGLAAICGVFGR | 2.19 |
| EASNCFAIRHFENKFAVETLICGLAFTCVPCPLG | inactive |
| EASNCFAIRHFENKFAVETLICGLCNIAHHNVCW | 8.42 |
| EASNCFAIRHFENKFAVETLICGLCRHGLWLVCW | inactive |
| EASNCFAIRHFENKFAVETLICGLDFSV | 4.31 |

| Sequence | amyloid nucleation score |
| --- | --- |
| EASNCFAIRHFENKFAVETLICGLEGRR | inactive |
| EASNCFAIRHFENKFAVETLICGLEKSRGEVAVW | inactive |
| EASNCFAIRHFENKFAVETLICGLELYVGHTYFG | inactive |
| EASNCFAIRHFENKFAVETLICGLEQGARKTRPL | inactive |
| EASNCFAIRHFENKFAVETLICGLEREQSLTKRR | 1.13 |
| EASNCFAIRHFENKFAVETLICGLFM | 8.66 |
| EASNCFAIRHFENKFAVETLICGLGRRLL | inactive |
| EASNCFAIRHFENKFAVETLICGLGWYRLQSARF | inactive |
| EASNCFAIRHFENKFAVETLICGLKACMVGGLHP | 5.45 |
| EASNCFAIRHFENKFAVETLICGLKMENSSFG | inactive |
| EASNCFAIRHFENKFAVETLICGLLLAVALVWPE | inactive |
| EASNCFAIRHFENKFAVETLICGLLVSRWRGSWG | inactive |
| EASNCFAIRHFENKFAVETLICGLNKSVMGIEQC | inactive |
| EASNCFAIRHFENKFAVETLICGLQ | 7.59 |
| EASNCFAIRHFENKFAVETLICGLQAEH | inactive |
| EASNCFAIRHFENKFAVETLICGLQC | 3.84 |
| EASNCFAIRHFENKFAVETLICGLQLEWLPLASE | inactive |
| EASNCFAIRHFENKFAVETLICGLQWAMSYAIVG | inactive |
| EASNCFAIRHFENKFAVETLICGLR | inactive |
